Among all 220,000 compounds or so, about 16,000 (7.3%) were called active. Inconclusive results, whose numbers are uncertain, are shown with a selection of clear calls. Calls come from the whole dose curve; as a rule, active = well fitted inhibition curve with a large enough effect (not every such curve was filed as active); inconclusive = small, poorly fitted or top-dose-only effect, or another doubt; inactive = no such curve, though single readings can be large or run the other way. No potency is given beside an inconclusive call; the fits are too rough.
Biological target: Aldehyde dehydrogenase 1A1 (Homo sapiens) (UniProt P00352)
UniProt P00352, sequence (P00352 whole entry, looked up): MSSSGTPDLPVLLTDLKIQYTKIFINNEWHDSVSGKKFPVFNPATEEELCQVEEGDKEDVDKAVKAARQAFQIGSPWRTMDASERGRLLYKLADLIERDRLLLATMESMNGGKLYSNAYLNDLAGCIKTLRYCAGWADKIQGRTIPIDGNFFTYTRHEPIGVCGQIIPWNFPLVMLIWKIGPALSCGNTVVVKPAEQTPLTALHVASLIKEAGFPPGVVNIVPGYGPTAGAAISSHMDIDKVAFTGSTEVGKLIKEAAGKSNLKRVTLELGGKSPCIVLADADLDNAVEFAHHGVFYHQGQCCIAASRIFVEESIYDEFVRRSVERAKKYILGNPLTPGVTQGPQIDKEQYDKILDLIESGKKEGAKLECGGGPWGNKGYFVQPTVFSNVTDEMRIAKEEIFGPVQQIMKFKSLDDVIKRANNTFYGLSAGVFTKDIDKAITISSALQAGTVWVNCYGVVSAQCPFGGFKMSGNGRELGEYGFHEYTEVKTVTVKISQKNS
Assay: qHTS Assay for Inhibitors of Aldehyde Dehydrogenase 1 (ALDH1A1);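 for activity, negative = inhibition: plate controls were no enzyme wells and a reference inhibitor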
Conditions: Purified ALDH1A1, NADH fluorescence, propionaldehyde substrate; series mostly up to 75.3 µM; activity, negative = inhibition: at the top concentration
Potency is the fitted concentration of half-maximal effect; tags give direction and shape of the fitted curve.

Row | SMILES | Potency | activity, negative = inhibition
1 | COc1ccc(C(=O)OCC(=O)N2C(C)CCCC2C)cc1[N+](=O)[O-] (stereo not given) | inconclusive [inhibitor, single point] | –
2 | Cc1c(C(=O)NCc2ccccc2)oc2ccc(S(=O)(=O)N3CCC4(CC3)OCCO4)cc12 | inconclusive [inhibitor, partial curve] | –
3 | O=c1c(-c2cc(F)cc(F)c2)nc2cnc(N3CCOCC3)nc2n1Cc1ccc(F)cc1 | inconclusive [inhibitor, full curve] | –
4 | COC(=O)c1c(NC(=O)Cc2cccs2)sc(C(=O)N2CCCCC2)c1C | active: 4.47 µM | –
5 | COc1cc(OC)cc(C(=O)NNC(=S)NC2CC2)c1 | – | inactive: 8.3%
6 | Cc1ccc(-n2c(SCC(=O)N3CCCc4ccccc43)nnc2-c2cccnc2)c(C)c1 | inconclusive [inhibitor, full curve] | –
7 | COc1cc(OC)c2c(c1)OC(=O)CC2c1ccccc1OC (stereo not given) | – | inactive: -9.35%
8 | O=c1nc(N2CCOCC2)ccn1-c1nc(-c2ccccc2)sc1-c1ccccc1 | inconclusive [inhibitor, partial curve] | –
9 | COC(=O)/C=C/C1c2ccccc2C(OC)C1C (stereo not given) | – | inactive: 9.15% [at 13.5 µM]
10 | CCCCS(=O)(=O)N1C2=NC(C(=O)OC)=C(C(=O)OC)[C@@H]3Nc4ccccc4[C@]23C[C@H]1C(=O)OC | – | inactive: 5.95% [at 13.5 µM]
11 | N#C/C(=C\c1c(N2CCCCCC2)nc2ccccn2c1=O)C(=O)NCc1ccco1 | active: 12.6 µM | –
12 | COc1ccc(C(=O)CSc2nc3ccccc3n2CC(=O)c2ccccc2)cc1 | active: 25.1 µM | –
13 | Nc1cc(C(=O)OCC(=O)N2CCCC2)ccc1Cl | inconclusive [inhibitor, partial curve] | –
14 | COc1ccc(Nc2oc(-c3cccs3)nc2C#N)cc1 | inconclusive [inhibitor, single point] | –
15 | Cc1ccc(C)c(C(=O)CN2C(=O)c3ccccc3S2(=O)=O)c1 | inconclusive [inhibitor, single point] | –
16 | O=C(Cn1cncc1-c1ccc([N+](=O)[O-])cc1)Nc1ccccc1F | – | inactive: -0.313%
17 | C=C(C)CSc1nnc(-c2cc(OC)c(OC)c(OC)c2)n1N | inconclusive [inhibitor, partial curve] | –
18 | Cc1cccc(OCCCC(=O)NC(C)C)c1 | – | inactive: 2.74%
19 | Cc1cc(C)n(-c2nnc(C)n2NC(=O)c2cccc(Cl)c2)n1 | inconclusive [inhibitor, single point] | –
20 | Nc1ccc(N2CCOCC2)c(S(=O)(=O)Nc2cc(Cl)ccc2Cl)c1 | – | inactive: -4.44%
21 | COC(=O)c1ccc(C(=O)OC)c(NC(=O)Nc2ccc3c(c2)OCO3)c1 | inconclusive [inhibitor, partial curve] | –
22 | Cc1nn(-c2ccc(Cl)cc2)c(=O)c2ccccc12 | – | inactive: 4.96%
23 | S=C(NCc1ccccc1Cl)Nc1ccccc1Cl | inconclusive [inhibitor, partial curve] | –
24 | Cn1cccc1Cc1nnc(SCC(=O)Nc2nc3ccccc3s2)n1CCc1ccccc1 | inconclusive [inhibitor, single point] | –

Row | SMILES | Potency | activity, negative = inhibition
25 | CCOC(=O)c1c(C)c(C(=O)Nc2ccc3c(c2)OCO3)c(C)n1C | inconclusive [inhibitor, partial curve] | –
26 | Cc1ccc(N2C(=O)CC(Sc3nc4ccccc4o3)C2=O)cc1Cl (stereo not given) | active: 1.41 µM | –
27 | Cc1ccccc1-c1nc2sc3c(c2c(=O)o1)CCC3 | – | inactive: -15.8%
28 | CCOC(=O)CNC(=O)C1c2cc(OC)c(OC)cc2C(=O)N(C)C1c1ccccc1F (stereo not given) | inconclusive [inhibitor, single point] | –
29 | O=C1CCCC(O)=C1C=NCc1ccccc1 | – | inactive: 1.14%
30 | CCCn1c(SCc2nc3ccccc3s2)n[nH]c1=O | inconclusive [inhibitor, partial curve] | –
31 | O=C(Nc1nc(-c2ccccc2)cs1)c1cccc([N+](=O)[O-])c1 | inconclusive [inhibitor, single point] | –
32 | COC(=O)c1ccccc1NS(=O)(=O)c1ccc2c3c(cccc13)C(=O)N2 | inconclusive [inhibitor, single point] | –
33 | CC/C(=N\NC(=O)CNC(=O)/C=C/c1ccco1)c1ccccc1 | active: 14.1 µM | –
34 | COc1cccc(CN2CCNC(=O)C2CC(=O)N2CCOc3ccccc3C2)c1OC (stereo not given) | – | inactive: 3.83%
35 | O=C(c1cccnc1)N(c1cc2sc(=O)oc2c2ccccc12)S(=O)(=O)c1ccccc1 | active: 10 µM | –
36 | CCCCN(C(=O)Cn1ncc(Cl)c(Cl)c1=O)c1c(N)n(CC(C)C)c(=O)[nH]c1=O | inconclusive [inhibitor, single point] | –
37 | Cn1ncc2c(=O)n(CC(=O)NC34CC5CC(CC(C5)C3)C4)cnc21 | – | inactive: -2.42%
38 | O=C(CSc1ccc2nnc(-c3ccccn3)n2n1)N1CCOCC1 | inconclusive [inhibitor, single point] | –
39 | Cn1c(=O)c2c(nc(N3CCN(c4ccccc4)CC3)n2CCCc2ccccc2)n(C)c1=O | inconclusive [inhibitor, partial curve] | –
40 | Cc1ccc(NC(=O)CNS(=O)(=O)c2cccs2)cc1F | inconclusive [inhibitor, single point] | –
41 | COc1cccc(-c2cc(NCc3cccs3)ncn2)c1 | inconclusive [inhibitor, single point] | –
42 | Cc1onc(-c2c(F)cccc2Cl)c1C(=O)NC(=S)NC1CCSC1=O (stereo not given) | active: 10 µM | –
43 | CC(=O)/C(N=Nc1ccc(SC(F)F)cc1)=C(\C)O | inconclusive [inhibitor, full curve] | –
44 | COc1ncc2nc(-c3ccc(Cl)cc3)c(=O)n(C[C@H]3CCCO3)c2n1 | inconclusive [inhibitor, partial curve] | –
45 | COC(=O)CNc1cccc(C(F)(F)F)c1 | inconclusive [inhibitor, single point] | –
46 | Cc1ccccc1N1CCN(CCCOc2ccc3c(C)cc(=O)oc3c2)CC1 | inconclusive [inhibitor, partial curve] | –
47 | CCOC(=O)C1=C(CC)Nc2ccccc2N=C1NC(=O)c1ccc(S(=O)(=O)N2CCOCC2)cc1 | active: 14.1 µM | –
48 | CC(=O)[C@@]1(N=Nc2ccc(S(N)(=O)=O)cc2)CCOC1=O | inconclusive [inhibitor, single point] | –

Row | SMILES | Potency | activity, negative = inhibition
49 | Cc1ccc(S(=O)(=O)N2CCCC2C(=O)NCc2ccco2)cc1 (stereo not given) | active: 28.2 µM | –
50 | CCN1C(=O)/C(=C2/C=CC=CN2C)OC1=S | inconclusive [inhibitor, partial curve] | –
51 | O=C1NC(=Nc2ccc3ccccc3c2)S/C1=C/c1ccco1 | inconclusive [inhibitor, single point] | –
52 | N/C(=N\c1nc2ccccc2o1)NC(=O)c1ccccc1Br | inconclusive [inhibitor, single point] | –
53 | C=CCn1c(-c2csc3c2CCC(C)C3)n[nH]c1=S (stereo not given) | inconclusive [inhibitor, partial curve] | –
54 | COCCn1c(=O)c(C)nc2cnc(Oc3ccccc3)nc21 | inconclusive [inhibitor, single point] | –
55 | COc1ccc(CCNC(=S)NC2CCN(Cc3ccccc3)CC2)cc1 | inconclusive [inhibitor, single point] | –
56 | CCOC(=O)C1=C(N)OC2=C(C(=O)CC(C)(C)C2)C1c1cccs1 (stereo not given) | inconclusive [inhibitor, single point] | –
57 | Cc1cc(C)nc(-n2nc(C)cc2NC(=O)CN2CCCC2)n1 | inconclusive [inhibitor, single point] | –
58 | O=C(CSc1nnc(-c2ccccc2)n1-c1ccccc1)c1cccs1 | – | inactive: 2.87%
59 | CC(=O)N1CCC2(CC1)CN(C(=O)Nc1cccc(C#N)c1)C2 | – | inactive: 1.89%
60 | Cc1ccc(C)c(NC(=O)CSc2nc3[nH]ncc3c(=O)[nH]2)c1 | inconclusive [inhibitor, single point] | –
61 | CCOC(=O)Cc1csc(NC(=O)c2cc3c(s2)CCCC3)n1 | inconclusive [inhibitor, single point] | –
62 | CSc1cnn(Cc2ccccc2)c(=O)c1SCc1ccccc1 | inconclusive [inhibitor, single point] | –
63 | O=C(Nc1ccc2c(c1)oc1ccccc12)N1CCOCC1 | inconclusive [inhibitor, single point] | –
64 | O=C(Cn1nnc2c(cnn2-c2ccc(F)cc2)c1=O)Nc1ccccc1C(F)(F)F | inconclusive [inhibitor, single point] | –
65 | O=C(O)C1Nc2c(C(=O)N3CCOCC3)cccc2C2C=CCC12 (stereo not given) | inconclusive [inhibitor, single point] | –
66 | O=C(NC1CCCCC1)c1cc([N+](=O)[O-])ccc1N1CCOCC1 | – | inactive: -8.05%
67 | CCN(CC)S(=O)(=O)c1ccc(Cl)c(NC(=O)CSc2nnc(-c3cccs3)o2)c1 | inconclusive [inhibitor, partial curve, poor fit] | –
68 | O=C(COc1ccccc1)n1nc(-c2ccc(Cl)cc2)nc1NCc1ccco1 | inconclusive [inhibitor, single point] | –
69 | O=c1nc2n(Cc3ccccc3)c3ccccc3cc-2c(=O)[nH]1 | inconclusive [inhibitor, partial curve] | –
70 | O=c1c(-c2cc(F)cc(F)c2)nc2cnc(N3CCOCC3)nc2n1C[C@H]1CCCO1 | inconclusive [inhibitor, partial curve] | –
